“And” between values parts separate entries of the source, which are not always exact repeats. Equal values may be shown once. The source gives many values for each of these; only a part stands here.
Legend:
[1] = xn = mol fraction of the nth substance listed

OCCCO + CS(C)=O
[1], 318.15 K, 101 kPa
Conditions | viscosity [mPa·s]
x1 = 0.3056 | 2.84
x1 = 0.356 | 3.18
x1 = 0.4064 | 3.58
x1 = 0.4566 | 4.04
x1 = 0.5066 | 4.59
x1 = 0.5565 | 5.22
x1 = 0.6063 | 5.95
x1 = 0.6556 | 6.82
x1 = 0.7055 | 7.83
x1 = 0.7549 | 9.03
x1 = 0.8042 | 10.5
x1 = 0.8533 | 12.1
x1 = 0.9024 | 14
x1 = 0.9512 | 16.2

CCOS(=O)(=O)[O-].CC[n+]1ccn(C)c1
100 kPa
Conditions | viscosity [mPa·s]
298.15 K | 100.6
313.15 K | 49.7

NCCCN + O
viscosity [mPa·s], [1], 101 kPa
Conditions | 303.15 K | 308.15 K | 313.15 K | 318.15 K | 323.15 K
x1 = 0.05 | – | – | – | – | 0.9913
x1 = 0.0518 | 1.637 | 1.437 | 1.267 | 1.127 | 1.008
x1 = 0.0966 | – | – | – | 1.765 | 1.549
x1 = 0.1 | 2.991 | 2.534 | 2.174 | 1.887 | 1.65
x1 = 0.1458 | – | – | – | 2.589 | 2.222
x1 = 0.1498 | 4.882 | 4.012 | 3.345 | 2.827 | 2.417
x1 = 0.199 | – | – | – | 3.536 | 2.951
x1 = 0.2004 | 6.762 | 5.446 | 4.467 | 3.714 | 3.132
x1 = 0.2473 | – | – | – | 4.078 | 3.425
x1 = 0.2498 | 7.872 | 6.309 | 5.128 | 4.236 | 3.548
x1 = 0.2734 | 8.088 | 6.473 | 5.268 | 4.351 | 3.646
x1 = 0.2961 | – | – | – | 4.378 | 3.676
x1 = 0.2984 | 8.108 | 6.502 | 5.297 | 4.379 | 3.662
x1 = 0.3248 | 7.918 | 6.364 | 5.199 | 4.307 | 3.619
x1 = 0.3465 | – | – | – | 4.336 | 3.632
x1 = 0.3502 | 7.614 | 6.155 | 5.027 | 4.189 | 3.518
x1 = 0.3766 | 7.121 | 5.774 | 4.754 | 3.972 | 3.354
x1 = 0.3974 | – | – | – | 4.12 | 3.47
x1 = 0.4041 | 6.681 | 5.464 | 4.509 | 3.787 | 3.211
x1 = 0.4467 | 5.911 | 4.871 | 4.068 | 3.445 | 2.935
x1 = 0.4955 | – | – | – | 3.414 | 2.935
x1 = 0.5995 | – | – | – | 2.674 | 2.314
x1 = 0.6969 | – | – | – | 2.114 | 1.866
x1 = 0.8006 | – | – | – | 1.712 | 1.534
x1 = 0.8936 | – | – | – | 1.416 | 1.281

CC(C)=O
101 kPa
Conditions | viscosity
293.15 K | 0.3339 mPa·s and 0.318 mPa·s
298.1 K | 0.331 mPa·s and 0.336 mPa·s and 0.342 mPa·s
298.15 K | 0.309 mPa·s and 0.3045 mPa·s and 0.3212 mPa·s
303.15 K | 0.2954 mPa·s and 0.3086 mPa·s
308.15 K | 0.2939 mPa·s and 0.2809 mPa·s and 0.2809 mPa·s
313.15 K | 0.2713 mPa·s and 0.2839 mPa·s and 0.266 mPa·s
323.15 K | 0.2504 mPa·s

NCCCN + CC(O)CO
[1], 318.15 K, 101.3 kPa
Conditions | viscosity [mPa·s]
x2 = 0.2945 | 3.56
x2 = 0.3441 | 4.45
x2 = 0.3937 | 5.56
x2 = 0.4435 | 6.94
x2 = 0.4934 | 8.56
x2 = 0.5435 | 10.3
x2 = 0.5937 | 12.1
x2 = 0.644 | 14
x2 = 0.6945 | 15.5
x2 = 0.745 | 16.7
x2 = 0.7958 | 17.3
x2 = 0.8466 | 17.4
x2 = 0.8976 | 17
x2 = 0.9487 | 16.3

NCCCN + OCCCO
[1], 318.15 K, 100 kPa
Conditions | viscosity [mPa·s]
x2 = 0.2945 | 4.787
x2 = 0.3441 | 6.147
x2 = 0.3937 | 7.884
x2 = 0.4435 | 10.14
x2 = 0.4934 | 12.59
x2 = 0.5435 | 15.46
x2 = 0.5937 | 17.71
x2 = 0.644 | 21.16
x2 = 0.6945 | 23.1
x2 = 0.745 | 24.52
x2 = 0.7958 | 25.07
x2 = 0.8466 | 24.87
x2 = 0.8976 | 24.04
x2 = 0.9487 | 22.17

c1ccccc1
Conditions | viscosity
293.15 K, 101.33 kPa | 0.657 mPa·s and 0.6862 mPa·s and 0.6858 mPa·s
295.15 K, 101 kPa | 0.628 mPa·s
298 K, 101.33 kPa | 0.6119 mPa·s
298.15 K, 100 kPa | 0.6099 mPa·s
298.15 K, 101.3 kPa | 0.606 mPa·s and 0.61 mPa·s
299.15 K, 101.3 kPa | 0.619 mPa·s
303 K, 101.33 kPa | 0.5652 mPa·s
303.15 K, 101.3 kPa | 0.5651 mPa·s and 0.539 mPa·s
303.15 K, 101.33 kPa | 0.518 mPa·s
303.2 K, 101.33 kPa | 0.554 mPa·s
308.15 K, 101.3 kPa | 0.5284 mPa·s and 0.525 mPa·s
308.15 K, 101.33 kPa | 0.5413 mPa·s and 0.493 mPa·s and 0.528 mPa·s
313 K, 101.33 kPa | 0.4992 mPa·s
313.15 K, 101.33 kPa | 0.4863 mPa·s and 0.49 mPa·s
318.15 K, 101 kPa | 0.465 mPa·s and 0.553 mPa·s and 0.464 mPa·s
318.15 K, 101.33 kPa | 0.46 mPa·s
322.55 K, 101 kPa | 0.4691 mPa·s
323 K, 101.33 kPa | 0.435 mPa·s and 0.4447 mPa·s
323.15 K, 100 kPa | 0.4453 mPa·s
323.15 K, 101 kPa | 0.438 mPa·s and 0.415 mPa·s and 0.442 mPa·s
323.15 K, 101.33 kPa | 0.415 mPa·s and 0.4344 mPa·s

CS(=O)(=O)O + O
viscosity [mPa·s], [1], 100 kPa
Conditions | x1 = 0.003409 | x1 = 0.004307 | x1 = 0.005194 | x1 = 0.006086 | x1 = 0.006979 | x1 = 0.007862 | x1 = 0.008752
308.15 K | – | 0.7529 | 0.762 | 0.7678 | 0.7775 | 0.786 | 0.7898
313.15 K | 0.679 | 0.6843 | 0.6926 | 0.7016 | 0.7064 | 0.7136 | 0.7212
318.15 K | 0.6205 | 0.6262 | 0.6338 | 0.6392 | 0.6467 | 0.6541 | 0.6593
